Results taken from the supplement of paper PMC8728848.
This is one part of the list.

Assays:
Assay in all cases: glycan array binding signal (z-score within array); higher = stronger binding
Settings in all cases: glycan notation: IUPAC condensed, linker removed
[1] = target: Gal(b1-4)GlcNAc(b1-3)Gal(b1-4)GlcNAc(b1-3)Gal(b1-4)GlcNAc
Method in brief: (§1)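 Glycan array binding is given as a within-array Z-score, which can be read as non-binding when negative. The arrays, 3228 of them, came from the Consortium for Functional Glycomics database and were retained only where the protein sequence was available. Z-scores were averaged across arrays of the same protein sequence at different concentrations or buffers and across linkers.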

[2] = target: Gal(b1-4)GlcNAc(b1-3)Gal(b1-4)[Fuc(a1-3)]GlcNAc(b1-3)Gal(b1-4)[Fuc(a1-3)]GlcNAc
Method in brief: as §1

[3] = target: Gal(b1-4)GlcNAc(b1-3)GalNAc
Method in brief: as §1

[4] = target: Gal(b1-4)GlcNAc(b1-3)[Gal(b1-4)GlcNAc(b1-6)]Gal(b1-4)GlcNAc
Method in brief: as §1

[5] = target: Gal(b1-4)GlcNAc(b1-3)[GlcNAc(b1-6)]Gal(b1-4)GlcNAc
Method in brief: as §1

[6] = target: Gal(b1-4)GlcNAc(b1-6)Gal(b1-4)GlcNAc
Method in brief: as §1

[7] = target: Gal(b1-4)GlcNAc(b1-6)Gal(b1-4)GlcNAc(b1-6)GalNAc
Method in brief: as §1

[8] = target: Gal(b1-4)GlcNAc(b1-6)GalNAc
Method in brief: as §1

[9] = target: Gal(b1-4)GlcNAc(b1-6)[Gal(b1-3)]GalNAc
Method in brief: as §1

Gal3S(b1-3)GalNAc = target: Gal3S(b1-3)GalNAc
Method in brief: as §1

Gal3S(b1-3)GlcNAc = target: Gal3S(b1-3)GlcNAc
Method in brief: as §1

[10] = target: Gal3S(b1-3)[Fuc(a1-4)]GlcNAc
Method in brief: as §1

Gal3S(b1-4)Glc = target: Gal3S(b1-4)Glc
Method in brief: as §1

Gal3S(b1-4)Glc6S = target: Gal3S(b1-4)Glc6S
Method in brief: as §1

Gal3S(b1-4)GlcNAc = target: Gal3S(b1-4)GlcNAc
Method in brief: as §1

Gal3S(b1-4)GlcNAc6S = target: Gal3S(b1-4)GlcNAc6S
Method in brief: as §1

[11] = target: Gal3S(b1-4)[Fuc(a1-3)]Glc
Method in brief: as §1

Gal3S4S(b1-4)GlcNAc = target: Gal3S4S(b1-4)GlcNAc
Method in brief: as §1

Gal3S6S(b1-4)GlcNAc = target: Gal3S6S(b1-4)GlcNAc
Method in brief: as §1

Gal3S6S(b1-4)GlcNAc6S = target: Gal3S6S(b1-4)GlcNAc6S
Method in brief: as §1

Gal4S(b1-4)GlcNAc = target: Gal4S(b1-4)GlcNAc
Method in brief: as §1

Gal4S6S(b1-4)GlcNAc = target: Gal4S6S(b1-4)GlcNAc
Method in brief: as §1

Gal6S(b1-4)Glc = target: Gal6S(b1-4)Glc
Method in brief: as §1

Gal6S(b1-4)Glc6S = target: Gal6S(b1-4)Glc6S
Method in brief: as §1

Gal6S(b1-4)GlcNAc = target: Gal6S(b1-4)GlcNAc
Method in brief: as §1

Gal6S(b1-4)GlcNAc6S = target: Gal6S(b1-4)GlcNAc6S
Method in brief: as §1

GalNAc(a1-3)Gal = target: GalNAc(a1-3)Gal
Method in brief: as §1

GalNAc(a1-3)GalNAc = target: GalNAc(a1-3)GalNAc
Method in brief: as §1

GalNAc(b1-3)Gal = target: GalNAc(b1-3)Gal
Method in brief: as §1

[12] = target: GalNAc(b1-3)Gal(a1-4)Gal(b1-4)GlcNAc
Method in brief: as §1

GalNAc(b1-3)GalNAc = target: GalNAc(b1-3)GalNAc
Method in brief: as §1

GalNAc(b1-4)GlcNAc = target: GalNAc(b1-4)GlcNAc
Method in brief: as §1

Glc(a1-4)Glc = target: Glc(a1-4)Glc
Method in brief: as §1

Glc(a1-6)Glc(a1-6)Glc = target: Glc(a1-6)Glc(a1-6)Glc
Method in brief: as §1

Glc(b1-4)Glc = target: Glc(b1-4)Glc
Method in brief: as §1

Glc(b1-6)Glc = target: Glc(b1-6)Glc
Method in brief: as §1

GlcA(b1-3)Gal = target: GlcA(b1-3)Gal
Method in brief: as §1

GlcA(b1-3)GlcNAc = target: GlcA(b1-3)GlcNAc
Method in brief: as §1

GlcA(b1-6)Gal = target: GlcA(b1-6)Gal
Method in brief: as §1

[13] = target: GlcNAc(a1-3)Gal(b1-4)GlcNAc
Method in brief: as §1

[14] = target: GlcNAc(a1-6)Gal(b1-4)GlcNAc
Method in brief: as §1

[15] = target: GlcNAc(b1-2)Gal(b1-3)GalNAc
Method in brief: as §1

[16] = target: GlcNAc(b1-2)Man(a1-3)[GlcNAc(b1-2)Man(a1-6)]Man(b1-4)GlcNAc(b1-4)GlcNAc
Method in brief: as §1

GlcNAc(b1-3)Gal = target: GlcNAc(b1-3)Gal
Method in brief: as §1

[17] = target: GlcNAc(b1-3)Gal(b1-3)GalNAc
Method in brief: as §1

B1: Surfactant Protein D (Human); Neck + Carbohydrate Recognition Domain (NCRD) (Homo sapiens) (protein)
chain: MLLFLLSALVLLTQPLGYLEAEMKTYSHRTMPSACTLVMCSSVESGLPGRDRDGREGPRGEKGDPGLPGAAGQAGMPGQAGPVGPKGDNGSVGEPGPKGDTGPSGPPGPPGVPGPAGREGALGKQGNIGPQGKPGPKGEAGPKGEVGAPGMQGSAGARGLAGPKGERGVPGERGVPGNTGAAGSAGAMGPQGSPGARGPPGLKGDKGIPGDKGAKGESGLPDVASLRQQVEALQGQVQHLQAAFSQYKKVELFPNGQSVGEKIFKTAQFVKPFTEAQLLCTQAGGQLASPRSAAENAALQQLVVAKNEAAFLSMTDSKTEGKFTYPTGESLVYSNWAPGEPNDDGGSEDCVEIFTNGKWNDRACGEKRLVVCEF
- glycan array binding signal (z-score) [1]: -0.193
- glycan array binding signal (z-score) [2]: -0.173
- glycan array binding signal (z-score) [3]: -0.113
- glycan array binding signal (z-score) [4]: -0.29
- glycan array binding signal (z-score) [5]: -0.231
- glycan array binding signal (z-score) [6]: -0.172
- glycan array binding signal (z-score) [7]: -0.271
- glycan array binding signal (z-score) [8]: -0.269
- glycan array binding signal (z-score) [9]: -0.207
- glycan array binding signal (z-score) (Gal3S(b1-3)GalNAc): -0.251
- glycan array binding signal (z-score) (Gal3S(b1-3)GlcNAc): -0.226
- glycan array binding signal (z-score) [10]: -0.176
- glycan array binding signal (z-score) (Gal3S(b1-4)Glc): -0.244
- glycan array binding signal (z-score) (Gal3S(b1-4)Glc6S): -0.124
- glycan array binding signal (z-score) (Gal3S(b1-4)GlcNAc): -0.259
- glycan array binding signal (z-score) (Gal3S(b1-4)GlcNAc6S): -0.135
- glycan array binding signal (z-score) [11]: -0.272
- glycan array binding signal (z-score) (Gal3S4S(b1-4)GlcNAc): -0.137
- glycan array binding signal (z-score) (Gal3S6S(b1-4)GlcNAc): -0.201
- glycan array binding signal (z-score) (Gal3S6S(b1-4)GlcNAc6S): -0.068
- glycan array binding signal (z-score) (Gal4S(b1-4)GlcNAc): -0.234
- glycan array binding signal (z-score) (Gal4S6S(b1-4)GlcNAc): -0.207
- glycan array binding signal (z-score) (Gal6S(b1-4)Glc): -0.216
- glycan array binding signal (z-score) (Gal6S(b1-4)Glc6S): -0.034
- glycan array binding signal (z-score) (Gal6S(b1-4)GlcNAc): -0.211
- glycan array binding signal (z-score) (Gal6S(b1-4)GlcNAc6S): -0.152
- glycan array binding signal (z-score) (GalNAc(a1-3)Gal): -0.254
- glycan array binding signal (z-score) (GalNAc(a1-3)GalNAc): -0.281
- glycan array binding signal (z-score) (GalNAc(b1-3)Gal): -0.203
- glycan array binding signal (z-score) [12]: -0.207
- glycan array binding signal (z-score) (GalNAc(b1-3)GalNAc): -0.264
- glycan array binding signal (z-score) (GalNAc(b1-4)GlcNAc): -0.227
- glycan array binding signal (z-score) (Glc(a1-4)Glc): 0.054
- glycan array binding signal (z-score) (Glc(a1-6)Glc(a1-6)Glc): -0.14
- glycan array binding signal (z-score) (Glc(b1-4)Glc): 0.019
- glycan array binding signal (z-score) (Glc(b1-6)Glc): -0.117
- glycan array binding signal (z-score) (GlcA(b1-3)Gal): -0.2
- glycan array binding signal (z-score) (GlcA(b1-3)GlcNAc): -0.074
- glycan array binding signal (z-score) (GlcA(b1-6)Gal): -0.166
- glycan array binding signal (z-score) [13]: -0.085
- glycan array binding signal (z-score) [14]: -0.272
- glycan array binding signal (z-score) [15]: -0.266
- glycan array binding signal (z-score) [16]: -0.125
- glycan array binding signal (z-score) (GlcNAc(b1-3)Gal): -0.211
- glycan array binding signal (z-score) [17]: -0.22
